For two compounds, GI50 and TGI results are on record in PubChem BioAssay (NCI).

The assay relates to NCI-H322M lung. The assay is described as follows: DTP human tumour cell line panel, 48 h.

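Where inhibition never reached the appropriate level, the endpoint shown equals the highest concentration tested. Otherwise, values were interpolated linearly from a five-concentration, 48-hour dose response in 96-well plates. GI50 is the concentration that inhibits growth by half. TGI marks complete inhibition of growth.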

Take `O=C(CSc1nnc(-c2ccc(Cl)cc2)n1-c1ccccc1)Nc1ccc(Cl)cc1`: the GI50 (as a rule, the concentration that inhibits growth by half) is 3.58 µM and the TGI (commonly the concentration at which net growth stops) was > 100 µM.

As to `CCOC(=O)c1c(NC(=O)c2cccc(C(F)(F)F)c2)sc2c3c(ccc12)OCN(C)C3`, the GI50 was 1.69 µM and the TGI came out at 3.09 µM.
